In article PMC4336329 (PLoS ONE, 2015):
About 2,200 (0.71%) of roughly 310,000 compounds showed an effect of 50% or more. The effect is printed as a negative number. Some of the results follow.

Molecular target: human ether-à-go-go-related gene (hERG) potassium channel (human, UniProt Q12809)
Assay: primary screen, population patch clamp on CHO cells stably expressing hERG

Chain of human ether-à-go-go-related gene (hERG) potassium channel (Q12809 whole entry, looked up): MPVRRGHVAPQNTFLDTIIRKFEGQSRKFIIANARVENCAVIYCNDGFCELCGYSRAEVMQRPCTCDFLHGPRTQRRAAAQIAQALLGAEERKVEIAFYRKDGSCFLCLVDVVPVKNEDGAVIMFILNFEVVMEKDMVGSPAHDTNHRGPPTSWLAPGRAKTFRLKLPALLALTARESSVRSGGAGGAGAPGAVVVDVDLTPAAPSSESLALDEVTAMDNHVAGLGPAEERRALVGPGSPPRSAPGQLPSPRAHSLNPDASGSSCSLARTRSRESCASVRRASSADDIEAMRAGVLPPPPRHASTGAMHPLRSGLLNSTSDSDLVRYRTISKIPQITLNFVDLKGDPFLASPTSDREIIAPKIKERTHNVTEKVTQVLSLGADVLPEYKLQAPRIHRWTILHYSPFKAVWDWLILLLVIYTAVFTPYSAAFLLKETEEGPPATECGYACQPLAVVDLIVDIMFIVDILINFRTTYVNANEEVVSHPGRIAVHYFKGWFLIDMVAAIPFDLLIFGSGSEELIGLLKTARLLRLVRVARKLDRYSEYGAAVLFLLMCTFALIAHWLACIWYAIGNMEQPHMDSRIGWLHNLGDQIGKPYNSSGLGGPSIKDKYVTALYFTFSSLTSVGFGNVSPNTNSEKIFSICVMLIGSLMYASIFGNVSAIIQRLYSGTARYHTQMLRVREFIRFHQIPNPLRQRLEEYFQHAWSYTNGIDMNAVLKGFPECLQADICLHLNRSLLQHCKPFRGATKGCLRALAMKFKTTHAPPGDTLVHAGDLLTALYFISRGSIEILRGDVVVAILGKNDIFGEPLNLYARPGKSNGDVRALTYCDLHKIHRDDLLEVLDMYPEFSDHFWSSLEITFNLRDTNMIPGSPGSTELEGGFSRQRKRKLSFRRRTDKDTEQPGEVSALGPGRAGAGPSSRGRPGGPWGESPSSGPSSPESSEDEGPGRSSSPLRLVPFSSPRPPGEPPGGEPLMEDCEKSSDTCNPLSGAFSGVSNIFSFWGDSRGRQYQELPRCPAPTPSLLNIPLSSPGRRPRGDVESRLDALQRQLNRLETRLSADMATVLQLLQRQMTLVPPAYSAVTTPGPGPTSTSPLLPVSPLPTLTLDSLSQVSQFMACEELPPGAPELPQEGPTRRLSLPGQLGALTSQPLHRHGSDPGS

Row | SMILES | hERG current change (%, negative = inhibition) at 1uM
1 | O=c1c(Cl)c(NCc2ccccc2Cl)cnn1C12CC3CC(CC(C3)C1)C2 | 2.59%
2 | CC12OC1C1(O)CCCC1=CC2=O (centres unmarked) | 13.1%
3 | Cc1cc(C)n(C(=O)Cn2nc(C)c(Cl)c2C)n1 | -0.551%
4 | COc1ccc(OCC(=O)OCCN(C)C)cc1.Cl | 6.29%
5 | COCc1ccc([C@@H]2C[C@H]3CN(Cc4cccnc4)C(=O)[C@]34CCCN24)o1 | 5.22%
6 | COc1ccc(-n2c(COc3ccc4c(c3)OCO4)nnc2SCC(=O)O)cc1 | 11.3%
7 | CCS(=O)(=O)n1nc(-c2ccccc2)nc1N | 8.92%
8 | COC(=O)c1nnn(CC(=O)NC(=O)Nc2cccc(C)c2C)c1C(=O)OC | 15.3%
9 | CC(=O)NC1C(=O)N(CCN2CCOCC2)c2ccc(Br)cc21.Cl (centres unmarked) | 4.3%
10 | COc1ccc(-c2cc(=O)c3ccccc3n2C)cc1 | 4.83%
11 | Cc1cccc(NC(=O)CC2c3ccccc3Oc3ccccc32)c1 | 10.1%
12 | Fc1ccc2c(c1)/C(=N/Nc1ccccn1)CCS2 | 11.2%
13 | CN(C)CCNC(=O)c1[nH]nc2c1CCc1ccccc1-2 | 5.79%
14 | CC(=O)OC1CSc2nc3ccccc3n2C1 (centres unmarked) | -2.13%
15 | CCOc1cc2c(cc1OCC)C(c1ccc(OC)cc1)N(c1ccccc1)C(=O)C2 (centres unmarked) | 1.2%
16 | COc1ccc(-c2nc3cc(NC(=O)c4ccc5c(c4)OCO5)ccc3o2)cc1 | 1.37%
17 | Cc1cc(C)n(C(=O)c2ccc([N+](=O)[O-])cc2Cl)n1 | 14.9%
18 | Cc1ccc(OCCOCCNC(C)(C)C)c([N+](=O)[O-])c1.O=C(O)C(=O)O | 3.73%
19 | CCNC(=O)CN(c1ccc(Br)c(C)c1)S(C)(=O)=O | 6.53%
20 | COc1ccc(Nc2nc(N)nc(CSc3nc(C)cc(C)n3)n2)cc1 | 12.7%
21 | O=C(COC(=O)/C=C/c1cccc(Cl)c1)NCCc1ccccc1 | 18.4%
22 | Cc1cccc(NC(=O)c2ccc(S(=O)(=O)N(C)C)cc2)c1 | 3.38%
23 | O=C(COC(=O)c1ccc(Cl)nc1)NC1CCCCCC1 | 9.48%
24 | O=C(CSc1ncnc2[nH]ncc12)Nc1nc(-c2ccc(F)c(F)c2)cs1 | 36.9%
25 | Oc1cccc(C=Nc2cccc3ccccc23)c1O | 17.5%
26 | C=C(C)C(=O)Nc1cccnc1Oc1ccc(F)cc1 | 8.31%
